Our source for the apoptosis of cells values is patent US8242178B2 (University of South Carolina, priority 2007, dated 2012).

For this experiment, the system named is Jurkat cell line (Mek/30). In words: THC-induced apoptosis in Jurkat cells inducibly expressing constitutively active MEK. To be noted: THC in the presence of doxycycline at 12 hours. An excerpt: Western analysis was used to monitor expression of the HA tag, and various proteins. Arrows represent THC-induced breakdown products or active caspases.
Based on this, THC-mediated down regulation of the MAPK signaling contributes to the marked potentiation of apoptosis. To define the functional role of enforced activation of MEK/ERK in regulating THC-induced cell death, a Jurkat cell line that inducibly expresses a constitutively active MEK construct (Mek/30) under the control of a doxycyline-responsive promoter was employed. […] However, when cells were cultured in the presence of doxycycline, a pronounced increase in expression of the HA tag was noted, along with substantial increases in expression of both phospho-MEK and -ERK. Enforced activation of ERK1/2 also diminished THC-mediated activation of procaspase-8, bid, -9 and -3, as well as PARP degradation.

For `CCCCCc1cc(O)c2c(c1)OC(C)(C)[C@@H]1CCC(C)=C[C@@H]21` [THC, Δ9-tetrahydrocannabinol], the apoptosis of cells result was “essentially abrogated”.
